{
  "sequences": {"note": "Sequences of proteins named here, by UniProt entry; tags and fusion partners are left off. A change or cut given only in a name is not applied to a line headed by its entry. A line that says so, or that is headed by a name, gives the form on record, which may keep a tag or linker. Residues count along the entry.", "UniProt Q60749": "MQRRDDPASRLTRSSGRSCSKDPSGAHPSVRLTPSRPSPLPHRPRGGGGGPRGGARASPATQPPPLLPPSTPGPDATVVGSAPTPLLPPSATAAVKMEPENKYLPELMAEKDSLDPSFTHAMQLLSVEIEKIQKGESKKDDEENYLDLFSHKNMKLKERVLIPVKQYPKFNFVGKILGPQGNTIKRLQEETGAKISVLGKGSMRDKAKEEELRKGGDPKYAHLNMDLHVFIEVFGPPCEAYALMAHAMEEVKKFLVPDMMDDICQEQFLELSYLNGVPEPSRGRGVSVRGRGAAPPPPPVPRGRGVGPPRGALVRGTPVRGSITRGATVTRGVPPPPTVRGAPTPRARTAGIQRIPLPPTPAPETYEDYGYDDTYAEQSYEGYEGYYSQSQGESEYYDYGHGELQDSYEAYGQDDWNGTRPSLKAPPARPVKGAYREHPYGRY", "HA-tagged Sam68 truncation mutant lacking the C-terminal domain (amino acids 347-443)": "residues 1-346 of Q60749"},
  "source": "paper PMC8185084",
  "molecules": {"B1": {"name": "CREB-regulated transcriptional coactivator 2 (CRTC2), endogenous in mouse primary hepatocytes (protein, UniProt Q3U182 1-692)", "chain": "MATSGANGPGSATASASNPRKFSEKIALQKQRQAEETAAFEEVMMDIGSTRLQAQKLRLAYTRSSHYGGSLPNVNQIGCGLAEFQSPLHSPLDSSRSTRHHGLVERVQRDARRMVSPLRRYPRHIDSSPYSPAYLSPPPESGWRRMMPWGNLPAEKGQLFRLPSALNRTSSDSALHTSVMNPNPQDTYPGPTPPSVLPSRRGGGFLDGEMDAKVPAIEENVVDDKHLLKPWDAKKLSSSSSRPRSCEVPGINIFPSPDQPANVPVLPPAMNTGGSLPDLTNLHFPPPLPTPLDPEETVYPSLSGGNSTTNLTHTMTHLGISGGLGLGPSYDVPGLHSPLSHPSLQSSLSNPNLQASLSSPQPQLQGSHSHPSLPASSLAHHALPTTSLGHPSLSAPALSSSSSSSSTSSPVLSAPPYPASTPGASPRHRRVPLSPLSLPAGPADARRSQQQLPKQFSPTMSPTLSSITQGVPLDTSKLPTDQRLPPYPYSPPSLVIPTHPPTPKSLQQLPSQACLVQPSGGQPPGRQPHYGALYPPGSSGHGQQPYHRPINDFSLGNLEQFNMESPSTSLVLDPPAFSEGPGFLGSEGSMSGPQDPHVLNHQNLTHCSRHGSGPNIILTGDSSPGFSKEIAAALAGVPGFEVSASGLELGLGLEDELRMEPLGLEGLTMLSDPCALLPDPAVEDSFRSDRLQ"}, "B2": {"name": "FLAG-tagged CRTC2 (protein, UniProt Q3U182 1-692)", "chain": "B1 chain"}},
  "key": {"[1]": {"target": "T1, CREB-regulated transcriptional coactivator 2 (CRTC2), endogenous in mouse primary hepatocytes (mouse (endogenous in mouse primary hepatocytes)) (UniProt Q3U182)", "T1 sequence": "B1 chain", "assay": "co-IP; endogenous CRTC2 immunoprecipitated from WT (and Sam68-/-) mouse primary hepatocytes, at baseline or with glucagon treatment; precipitates immunoblotted; 1% NP40 buffer (50 mM Tris-HCl pH 8.0, 1% Triton X-100, 150 mM NaCl, 0.25% sodium deoxycholate), protein A/G plus agarose-conjugated antibodies overnight at 4 °C"}, "FLAG-tagged CRTC2": {"target": "T2, FLAG-tagged CRTC2 (UniProt Q3U182)", "T2 sequence": "B1 chain", "assay": "co-IP; 293T cells co-transfected with HA-Sam68 and Flag-CRTC2; 48 h later CRTC2 immunoprecipitated with anti-Flag, Sam68 detected with anti-HA"}, "[2]": {"target": "Src-associated-in-mitosis-of-68kDa (Sam68), endogenous in mouse primary hepatocytes (mouse (endogenous in mouse primary hepatocytes)) (UniProt Q60749)", "assay": "co-IP; reverse co-IP of the endogenous proteins in mouse primary hepatocytes; nucleus and cytoplasm"}, "[3]": {"target": "HA-tagged Sam68 truncation mutant lacking the C-terminal domain (amino acids 347-443) (UniProt Q60749)", "assay": "co-IP; 293T cells co-transfected with Flag-CRTC2 and HA-tagged WT Sam68 or truncation mutants; 48 h later Sam68 immunoprecipitated with anti-HA, CRTC2 detected with anti-Flag"}},
  "note": "These are yes or no findings as the source states them, for the method shown. In cells and extracts the contact can be indirect. Some binding calls cover weakened binding; strength is not graded here. For some of these results: Where a sequence is shown, tags or fusion partners need not be part of it.",
  "data": [
    {"molecule": "Src-associated-in-mitosis-of-68kDa (Sam68), endogenous in mouse primary hepatocytes (from UniProt Q60749 1-443)", "values": [
      {"measurement": "binding", "setting": "[1]", "result": "binds"}
    ]},
    {"molecule": "hemagglutinin (HA)-tagged Sam68, full length (from UniProt Q60749 1-443)", "values": [
      {"measurement": "binding", "setting": "FLAG-tagged CRTC2", "result": "binds"}
    ]},
    {"molecule": "B1", "values": [
      {"measurement": "binding", "setting": "[2]", "result": "binds"}
    ]},
    {"molecule": "B2", "values": [
      {"measurement": "binding", "setting": "[3]", "result": "no binding"}
    ]}
  ]
}
